Values of other authors in US12097202B2 (Kadmon Corporation, LLC, priority 2022, dated 2024).

Tested on: patients with cGVHD
Conditions: in vivo; cited from earlier work

SMILES: C=CC(=O)N1CCC[C@@H](n2nc(-c3ccc(Oc4ccccc4)cc3)c3c(N)ncnc32)C1 [ibrutinib]
- discontinuation rate because of treatment-emergent adverse events (TEAEs): 43%
